Measured values taken from paper PMC4336329 (PLoS ONE, 2015).
Hit rate of the full screen: of about 310,000 compounds, about 2,200 (0.71%) showed an effect of 50% or more. The effect is printed as a negative number. The list shows a part of the results.

Each molecule was assayed against human ether-à-go-go-related gene (hERG) potassium channel (human, UniProt Q12809) (assay: primary screen, population patch clamp on CHO cells stably expressing hERG).
Chain of human ether-à-go-go-related gene (hERG) potassium channel (Q12809 whole entry, looked up): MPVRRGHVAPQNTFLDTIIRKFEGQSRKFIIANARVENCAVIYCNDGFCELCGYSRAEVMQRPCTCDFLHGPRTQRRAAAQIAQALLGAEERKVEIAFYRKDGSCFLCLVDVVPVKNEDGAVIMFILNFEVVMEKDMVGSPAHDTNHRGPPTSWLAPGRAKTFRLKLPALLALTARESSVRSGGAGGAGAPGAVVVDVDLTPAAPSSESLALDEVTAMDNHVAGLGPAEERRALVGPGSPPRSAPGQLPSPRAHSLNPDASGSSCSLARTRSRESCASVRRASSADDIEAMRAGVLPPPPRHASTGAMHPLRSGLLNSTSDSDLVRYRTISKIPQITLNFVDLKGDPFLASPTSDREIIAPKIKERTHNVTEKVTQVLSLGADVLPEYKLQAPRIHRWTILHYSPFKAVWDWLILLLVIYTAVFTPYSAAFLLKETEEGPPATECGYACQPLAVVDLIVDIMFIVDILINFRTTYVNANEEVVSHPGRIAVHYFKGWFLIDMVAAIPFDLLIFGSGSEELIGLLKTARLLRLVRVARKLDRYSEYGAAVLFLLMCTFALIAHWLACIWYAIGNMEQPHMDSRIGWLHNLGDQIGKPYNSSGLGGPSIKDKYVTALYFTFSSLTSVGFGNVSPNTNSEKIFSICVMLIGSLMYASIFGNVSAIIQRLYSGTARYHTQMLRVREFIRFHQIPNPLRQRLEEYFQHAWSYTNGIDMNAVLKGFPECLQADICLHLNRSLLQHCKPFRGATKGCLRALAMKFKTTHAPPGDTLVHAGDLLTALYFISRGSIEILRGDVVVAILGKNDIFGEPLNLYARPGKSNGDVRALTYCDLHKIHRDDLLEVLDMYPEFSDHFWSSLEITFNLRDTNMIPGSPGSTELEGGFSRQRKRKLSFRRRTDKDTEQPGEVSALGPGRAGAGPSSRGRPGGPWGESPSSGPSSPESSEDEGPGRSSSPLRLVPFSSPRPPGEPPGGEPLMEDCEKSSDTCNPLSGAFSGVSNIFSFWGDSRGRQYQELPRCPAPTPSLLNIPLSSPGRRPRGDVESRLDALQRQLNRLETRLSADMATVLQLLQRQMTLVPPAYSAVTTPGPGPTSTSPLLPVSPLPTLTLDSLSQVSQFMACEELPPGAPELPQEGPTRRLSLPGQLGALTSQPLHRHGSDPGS

Compared with `CCOc1ccc(OCCCC(=O)ON=C(N)c2ccccc2C)cc1`, `CCOc1ccc(NC(=O)CSc2nc3ccccc3c(=O)n2CCNC(C)=O)cc1` is lower in “hERG current change (%, negative = inhibition) at 1uM” value: 2.24% for the first, -8.82% for the second.

First: CCOC(=O)CSc1nnc(-c2cccnc2)o1
Second: Cc1ccc(-n2c(SCC(=O)N3Cc4ccccc4CC3C(=O)O)nnc2-c2cccnc2)c(C)c1 (stereo not shown)
The “hERG current change (%, negative = inhibition) at 1uM” value of the first is higher: 9.45% for the first, -3.66% for the second.

First: CC(NC(=O)CC1CCCCC1)c1ccccc1 (stereo not shown)
Second: CCC(=O)N1COC[C@@H]1Cc1ccccc1
The “hERG current change (%, negative = inhibition) at 1uM” value of the first is lower: 15.7% for the first, 22.6% for the second.

First: COc1ccc(C)cc1NC(=O)CN1CCN(S(=O)(=O)c2ccc(F)cc2)CC1
Second: COc1ccc(/C=C/C(=O)Nc2cccc(F)c2)cc1S(=O)(=O)N1CCOCC1
The “hERG current change (%, negative = inhibition) at 1uM” value of the first is higher: 6.68% for the first, -17.1% for the second.

Compared with `CC[n+]1c(/C=C/c2cc([N+](=O)[O-])ccc2O)ccc2ccccc21.[I-]`, `Cc1c(NC(=S)N/N=C/C=C/c2ccc([N+](=O)[O-])cc2)c(=O)n(-c2ccccc2)n1C` is lower in “hERG current change (%, negative = inhibition) at 1uM” value: 6.39% for the first, 2.06% for the second.

First: O=C(COC(=O)Cc1ccc(F)cc1)NC(=O)NC1CCCC1
Second: COC(=O)c1cc(C(=O)OCC(=O)NC2CCCC2)cc([N+](=O)[O-])c1
The “hERG current change (%, negative = inhibition) at 1uM” value of the first is higher: 11.7% for the first, 9.87% for the second.

Going from `COC(=O)C1=C(CS(=O)(=O)c2ccc(Cl)cc2)NC(=O)NC1c1ccc(O)cc1` (stereo not shown) to `Cc1ccccc1NC(=O)OCc1cccnc1Sc1ccc(Cl)cc1`, the “hERG current change (%, negative = inhibition) at 1uM” value falls from 17% to 9.66%.

First: Cc1ccc(C2=NO[C@@](CC(=O)O)(C(=O)Nc3ccc4c(c3)OCCO4)C2)cc1
Second: O=C1C(=O)N(CCN2CCOCC2)C(c2cccc(Cl)c2)/C1=C(\O)c1ccc2c(c1)OCCO2 (stereo not shown)
The “hERG current change (%, negative = inhibition) at 1uM” value of the first is higher: 11% for the first, 2.15% for the second.

Compared with `CCC(C)NC(=O)[C@H]1N2C(=O)c3c(ccc(OC)c3OC)C2SC1(C)C` (stereo partly shown), `COc1cc(C(=O)NC2CCCC2)c(Br)c(OC)c1OC` is lower in “hERG current change (%, negative = inhibition) at 1uM” value: 12.2% for the first, 9.37% for the second.

Going from `CCOC(=O)c1nnc(-c2ccccc2)nc1Oc1ccccc1Cl` to `O=C(c1ccccc1-c1nc(-c2ccccc2)no1)N1CCOCC1`, the “hERG current change (%, negative = inhibition) at 1uM” value rises from 12.9% to 16%.

First: CC(C)COc1nc2ccccc2c(=O)n1OCC(=O)O
Second: Cc1nc2ccccc2c(=O)n1N
The “hERG current change (%, negative = inhibition) at 1uM” value of the first is higher: 16% for the first, 5.03% for the second.

Compared with `Cc1cc(C(C)(C)C)nc2[nH]n(-c3ccccc3)c(=O)c12`, `CCOC(=O)CNC(=O)CSc1nc(Cc2cccs2)nc2ccccc12` is lower in “hERG current change (%, negative = inhibition) at 1uM” value: 7.76% for the first, -1.36% for the second.

Compared with `Cc1cccc(Cl)c1OCCCN1CCOCC1.O=C(O)C(=O)O`, `CCC1Nc2ncnc(N3CCOCC3)c2N(Cc2ccc(C)cc2)C1=O.O=C(O)C(F)(F)F` (stereo not shown) is lower in “hERG current change (%, negative = inhibition) at 1uM” value: 11.9% for the first, 8.63% for the second.

First: CC1CCCCC1NC(=O)CN1C(=O)NC(C)(c2cc(F)ccc2F)C1=O (stereo not shown)
Second: COc1ccc(CC(NC(C)=O)C(=O)NC2CCN(c3nc(C)cc(C)c3C#N)CC2)cc1 (stereo not shown)
The “hERG current change (%, negative = inhibition) at 1uM” value of the first is higher: 15.6% for the first, 5.46% for the second.

First: Nn1c(SCC(=O)N2CCCC2=O)nnc1-c1cccs1
Second: O=C(CN(C(=O)Cn1nnc(-c2cccs2)n1)c1cnc2ccccc2c1)NCC1CCCO1 (stereo not shown)
The “hERG current change (%, negative = inhibition) at 1uM” value of the first is lower: -2.11% for the first, 5.92% for the second.

Going from `CS(=O)(=O)c1ccccc1C(=O)Nc1ccc(-c2nc3ccccc3[nH]2)cc1` to `CC(=O)Nc1ccc(-c2csc(NC(=O)Cc3cccc(F)c3)n2)cc1`, the “hERG current change (%, negative = inhibition) at 1uM” value falls from 7.54% to 5.22%.

Going from `CC(=O)NCCC(=O)N(C)CC1CCN(CCc2cccc(C(F)(F)F)c2)CC1` to `COC(=O)c1c(C)[nH]c(C(=O)COC(=O)CCNS(=O)(=O)c2cccc(C(F)(F)F)c2)c1C`, the “hERG current change (%, negative = inhibition) at 1uM” value falls from 12.5% to -0.944%.

First: CCN(CC)C(=O)C1CCCN(C/C=C/c2ccccc2[N+](=O)[O-])C1 (stereo not shown)
Second: CCOC(=O)C1CCCN(C(=O)CCNS(=O)(=O)c2ccc(Br)cc2)C1 (stereo not shown)
The “hERG current change (%, negative = inhibition) at 1uM” value of the first is lower: -6.08% for the first, -4.26% for the second.

Going from `O=C(Oc1cccc(OC(=O)N2CCCCC2)c1)N1CCCCC1` to `O=C(c1cccc(Oc2ccc([N+](=O)[O-])cc2Cl)c1)N1CCCCC1`, the “hERG current change (%, negative = inhibition) at 1uM” value falls from 12.3% to 9.05%.

Compared with `Cc1ccc(N(C(=O)c2ccncc2)C2C=CS(=O)(=O)C2)cc1` (stereo not shown), `Cc1ccc(N(CC(=O)NCC(O)c2ccccc2)S(=O)(=O)c2ccc(C)cc2)cc1` (stereo not shown) is lower in “hERG current change (%, negative = inhibition) at 1uM” value: 6.32% for the first, -25% for the second.

Compared with `COc1ccc(-c2c(C#N)c(N)nc3sc(C(=O)c4ccc(C)cc4)c(N)c23)cc1`, `CCOc1ccc2nc(NC(=O)c3ccc(C)o3)sc2c1` is higher in “hERG current change (%, negative = inhibition) at 1uM” value: 16% for the first, 23.2% for the second.

Going from `C[N+](C)(C)CCNC(=O)c1cc[n+](Cc2ccccc2)c(/C=N/O)c1.[I-]` to `Cc1ccccc1NC(=O)C(C)O/N=C/c1cccc([N+](=O)[O-])c1` (stereo not shown), the “hERG current change (%, negative = inhibition) at 1uM” value falls from 20.6% to 7.11%.

First: O=C(NN1C(=O)C2C3C=CC(O3)C2C1=O)c1ccncc1 (stereo not shown)
Second: COC(=O)c1cccc(NC(=O)c2ccc3c(c2)C(=O)N(Cc2cccnc2)C3=O)c1C
The “hERG current change (%, negative = inhibition) at 1uM” value of the first is lower: 11.2% for the first, 22.4% for the second.

Going from `CCOC(=O)N1CCC(NC(=O)C(CC(C)C)NC(=O)C2CCC(C)CC2)CC1` (stereo not shown) to `CCOC(=O)c1ccccc1NC(=O)COC(=O)C1CC(=O)N(CCc2ccccc2)C1` (stereo not shown), the “hERG current change (%, negative = inhibition) at 1uM” value falls from 12.7% to 1.85%.

Going from `COCCNC(=O)c1cc2c(s1)-c1ccc(Cl)cc1SC2` to `CCN(CC)CCNC(=O)c1ccc(NC(=O)c2cccc(-n3cnnn3)c2)cc1`, the “hERG current change (%, negative = inhibition) at 1uM” value rises from 8.48% to 9.62%.

Going from `CCOC(=O)CCc1c(C)c2ccc(OCc3cc([N+](=O)[O-])ccc3OC)cc2oc1=O` to `COC(=O)N/N=C(\C)c1ccc(C)c([N+](=O)[O-])c1`, the “hERG current change (%, negative = inhibition) at 1uM” value rises from 9.23% to 13.5%.

Going from `CC(=O)Nc1ccc(CC#N)cc1` to `S=C(Nc1ccccc1)NC1CCN(Cc2ccccc2)CC1`, the “hERG current change (%, negative = inhibition) at 1uM” value falls from 6.89% to -8.9%.

With `Cc1cc(C)c2cc(CN(Cc3nnnn3C3CCCCC3)CC3CCCO3)c(=O)[nH]c2c1` (stereo not shown) the “hERG current change (%, negative = inhibition) at 1uM” value was -6.79%.
